# Measurements taken from article PMC4336329 (PLoS ONE, 2015).
# In all, about 310,000 compounds went through this assay and about 14,000 (4.5%) showed an effect of 50% or more. Effects have a minus sign here. The list shows a part of the results.
# Molecular target: human ether-à-go-go-related gene (hERG) potassium channel (human, UniProt Q12809)
# Experiment: primary screen, population patch clamp on CHO cells stably expressing hERG
# 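Also: peak tail current of the secondary pulse compared with the same well before compound.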
# Chain of human ether-à-go-go-related gene (hERG) potassium channel (Q12809 whole entry, looked up): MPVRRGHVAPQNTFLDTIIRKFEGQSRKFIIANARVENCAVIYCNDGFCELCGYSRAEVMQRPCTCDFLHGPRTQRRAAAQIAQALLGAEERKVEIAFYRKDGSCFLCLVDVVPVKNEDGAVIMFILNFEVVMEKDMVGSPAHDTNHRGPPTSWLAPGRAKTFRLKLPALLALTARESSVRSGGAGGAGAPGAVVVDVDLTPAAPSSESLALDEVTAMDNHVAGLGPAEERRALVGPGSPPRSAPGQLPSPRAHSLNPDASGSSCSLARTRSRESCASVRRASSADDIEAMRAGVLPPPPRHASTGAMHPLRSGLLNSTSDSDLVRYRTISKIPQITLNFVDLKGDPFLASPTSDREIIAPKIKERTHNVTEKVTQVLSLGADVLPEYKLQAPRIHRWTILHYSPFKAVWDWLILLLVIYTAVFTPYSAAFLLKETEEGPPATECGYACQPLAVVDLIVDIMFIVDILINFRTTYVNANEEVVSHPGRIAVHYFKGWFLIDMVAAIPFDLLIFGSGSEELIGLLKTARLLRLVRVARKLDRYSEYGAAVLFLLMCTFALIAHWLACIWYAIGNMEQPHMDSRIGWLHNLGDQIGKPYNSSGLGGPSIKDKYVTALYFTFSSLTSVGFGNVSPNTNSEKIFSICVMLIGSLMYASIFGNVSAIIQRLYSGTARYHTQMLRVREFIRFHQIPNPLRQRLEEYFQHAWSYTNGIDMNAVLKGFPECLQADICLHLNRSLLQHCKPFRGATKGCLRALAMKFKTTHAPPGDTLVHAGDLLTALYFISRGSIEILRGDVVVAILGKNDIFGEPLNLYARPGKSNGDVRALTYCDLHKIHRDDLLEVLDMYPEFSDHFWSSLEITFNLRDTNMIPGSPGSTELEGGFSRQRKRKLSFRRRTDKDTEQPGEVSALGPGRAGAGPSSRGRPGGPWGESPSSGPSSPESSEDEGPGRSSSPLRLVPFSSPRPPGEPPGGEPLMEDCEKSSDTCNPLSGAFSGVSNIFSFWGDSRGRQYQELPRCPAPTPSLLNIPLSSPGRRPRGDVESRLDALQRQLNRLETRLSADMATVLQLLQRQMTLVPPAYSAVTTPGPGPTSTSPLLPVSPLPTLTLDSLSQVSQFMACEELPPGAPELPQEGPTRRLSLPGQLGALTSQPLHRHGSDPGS
row,SMILES,"hERG current change (%, negative = inhibition) at 10uM"
1,COc1ccccc1OCc1nnc(SCC(=O)NCc2ccco2)n1Cc1ccco1,-34.1%
2,COc1ccc(OC)c(C(=O)COC(=O)c2c(OC)cccc2OC)c1,8.03%
3,COc1ccc(-n2ncc3c2CC(C)(C)CC3NC(=O)c2ocnc2C)cc1 (stereo not shown),-53.5%
4,CCCCN(CCCC)CCNC(=O)c1cn(CC)c2ccc(S(=O)(=O)N(C)C3CCCCC3)cc2c1=O,-82.5%
5,O=C(Nc1cc(S(=O)(=O)N2CCCCC2)ccc1O)c1ccccc1NS(=O)(=O)c1ccc(F)c(F)c1,1.39%
6,O=C(c1ccco1)N1CCN(C(=O)C2CCCN(S(=O)(=O)c3cccc4nsnc34)C2)CC1 (stereo not shown),-7.17%
7,N#Cc1c(-c2ccccc2)[nH]c(=O)[nH]c1=O,12.6%
8,O=C(Nc1cccc(NC(=O)c2cccs2)c1)c1ccc2c(c1)OCO2,-8.01%
9,Cc1cc2n(n1)SC(Nc1cccc3ccccc13)N2 (stereo not shown),-11.9%
10,CCCC(C(=O)NCCC(C)C)N(Cc1ccccc1)C(=O)c1snc(C(N)=O)c1N (stereo not shown),-5.39%
11,O=Cc1cn[nH]c1-c1ccccc1,19.1%
12,CCN(CC)CC(=O)Nc1nc(-c2ccc(Cl)cc2)cs1,-35.8%
13,O=C(CCn1cccc1)Nc1ccc(F)cc1,-5.36%
14,Cc1cc(S(=O)(=O)N2CCOCC2)ccc1OCC(=O)Nc1ccc(F)c(Cl)c1,14.7%
15,COC(=O)CN(C)C(=O)c1ccc2nc(Cc3cccc(Cl)c3)oc2c1,10.3%
16,O=C(COc1ccc(Br)cc1CNCCCN1CCOCC1)Nc1ccccc1,-47.8%
17,CCCCNC(=S)N(Cc1ccco1)Cc1cc2cc3c(cc2[nH]c1=O)OCCO3,-3.06%
18,O=C1/C(=C\c2cccc(O)c2O)SC(=S)N1Cc1ccccc1,17.2%
19,NC(=O)C1(N2CCCCC2)CCN(CC(=O)Nc2cc(Cl)ccc2Cl)CC1,-72%
20,CCOC(=O)CN(C(=O)CN1CCC(n2nnc3cc(C)ccc32)CC1)c1ccccc1,-53.8%
21,CC(C)NC(=O)C(=O)NCCC1CCCCN1S(=O)(=O)c1cccs1 (stereo not shown),2.16%
22,CCC(C)Nc1nc(Cl)nc(N(C#N)CN2C(=O)c3ccccc3S2(=O)=O)n1 (stereo not shown),7.9%

row,SMILES,"hERG current change (%, negative = inhibition) at 10uM"
1,CCCOc1c(Cl)cc(C(=O)NC)cc1OC,0.0514%
2,Cc1ccc(S(=O)(=O)N2CCC(C(=O)Nc3ccc4c(c3)OCO4)CC2)cc1,2.72%
3,Cc1sc2nc(COC(=O)Cc3ccccc3)[nH]c(=O)c2c1C,10.5%
4,Cc1cccc(-c2nc3sc(C)cc3c(=O)o2)c1,28.8%
5,COc1ccc(N(CC(=O)NCc2ccc(F)cc2)C(=O)CCC(=O)Nc2ccccn2)cc1,-4.31%
6,CC(NC(=O)C1CCN(S(=O)(=O)c2ccc3nc4c(c(C(=O)O)c3c2)CCCC4)CC1)c1ccccc1 (stereo not shown),4.75%
7,Cc1cccc(Cc2nnc(CCC(=O)N(CC3CC3)CC3CCCO3)o2)c1 (stereo not shown),-4.05%
8,O=C(CSc1nc(-c2cccs2)cc(C(F)(F)F)n1)Nc1cc(OCC(F)(F)F)cc([N+](=O)[O-])c1,9.54%
9,COc1ccc(CCC(C)NCc2ccc(C(F)(F)F)cc2)cc1 (stereo not shown),-66.3%
10,Cc1cccc(COc2ccc(/C=N/NC(=O)c3nnn(-c4nonc4N)c3COc3ccc(F)cc3)cc2)c1,11%
11,CC1(C)CC(=O)C/C(=N/NC(=O)COc2ccc3ccccc3c2Br)C1,3.85%
12,CC(C)(C)NC(=O)CN(CC1CCCO1)C(=O)CNS(=O)(=O)c1ccc(F)cc1 (stereo not shown),25.7%
13,Cl.O=C(c1ccco1)N1CCN(Cc2nnnn2CCc2ccccc2)CC1,-29.5%
14,CC(=O)N1N=C(c2cccs2)CC1c1ccc(Br)cc1 (stereo not shown),-10.1%
15,Cc1ccc(NC(=O)CSc2nc(=O)n3cc(C)ccc3n2)c(C)c1,-11.4%
16,COc1cc(C(=O)Nc2nnc(CC(=O)N3CCOCC3)s2)cc(OC)c1OC,13.3%
17,COc1ccc2c(c1)O[C@@H](c1cccc(C(F)(F)F)c1)[C@H](OC(=O)NCCc1ccc(OC)c(OC)c1)C2=O,-0.231%
18,Cc1ccc(/C=c2\s/c(=C(/C#N)C(=O)N3CCCC3)n(Cc3ccco3)c2=O)s1,0.109%
19,COc1ccc(C(=O)Nc2nc3ccc(OC)cc3s2)cc1,12.6%
20,O=C(CN1CCN(Cc2ccccc2)CC1)Nc1ccc(Cl)cc1,-68.4%
21,Cc1n[nH]c(C)c1S(=O)(=O)N1CCOCC1,0.207%
22,O=C(c1ccc(CS(=O)c2cccc(Cl)c2)o1)N1CCOCC1 (stereo not shown),10.8%

row,SMILES,"hERG current change (%, negative = inhibition) at 10uM"
1,COc1ccc(NC(C)=O)cc1S(=O)(=O)NC(Cc1ccccc1)C(=O)NCc1ccccc1C (stereo not shown),-13.1%
2,CC(C)(C)NC(=O)c1nc2ccccc2s1,-6.99%
3,Cn1c(=O)c2cc(S(=O)(=O)NCCC(=O)Nc3ccc(F)cc3F)ccc2n(C)c1=O,12%
4,Cc1ccc(-n2[nH]c(C)c(/C=N/n3c(C)nc4ccccc4c3=O)c2=O)cc1,-0.523%
5,CCc1c(-c2ccccc2)nc2nc(C)c(C)nn12,-14.1%
6,COc1ccc(OC)c(NC(=O)CSc2nc(C)cs2)c1,-16.1%
7,Cc1ccc(S(=O)(=O)NN2C(=O)c3ccccc3NC2(C)C)cc1,4.2%
8,Cn1cc(C(=O)C(=O)NCCc2ccccc2)c2ccccc21,5.73%
9,Cc1ccc(-c2noc(CN3CCN(C(c4ccccc4)c4ccccc4)CC3)n2)cc1,7.84%
10,O=C(NCc1cccnc1)c1ccc2c(c1)N(Cc1ccccc1)CCS2,-25.4%
11,COc1ccc2c(c1)C(=O)CC(c1ccc(OC)c(OC)c1)O2 (stereo not shown),8.18%
12,CCn1cc(C(=O)N[C@@H](C)C(=O)NCCCN2CCOCC2)c(=O)c2cc3c(cc21)OCO3,22.5%
13,O=C(NC1CCCCCCC1)C1CCCN(S(=O)(=O)c2cnc[nH]2)C1 (stereo not shown),12.8%
14,CC1CCCN(CCCNS(=O)(=O)c2cc(Br)cc3c2N(C(=O)C2CC2)CC3)C1 (stereo not shown),-9.8%
15,Cc1ccn2c(/C=N/OCc3ccc(F)cc3)c(-c3ccc(Cl)cc3)nc2c1,7.2%
16,CCC(C(=O)Nc1ccc(C(=O)Nc2ccccc2C(=O)O)cc1)c1ccccc1 (stereo not shown),10.6%
17,O=C(COc1ccccc1Cl)Nn1cnnc1,13.3%
18,COc1cc2c(cc1OC)C(c1cccs1)N(C(=O)c1ccc(S(=O)(=O)N(C)C)cc1)CC2 (stereo not shown),-72.6%
19,COc1ccccc1NC(=O)c1cc2c(CO)cnc(C)c2oc1=Nc1cc(OC)c(OC)c(OC)c1,24.9%
20,COC(=O)C1=C(C(=O)OC)[C@@H]2Nc3ccccc3[C@@]23C[C@@H](C(=O)OC)N(C(=O)c2cc(C)oc2C)C3=N1,12.8%
21,O=C(OCCOc1ccc(Br)cc1)c1cnccn1,-2.06%
22,COCCC(=O)N1CCCC(C(=O)c2ccc(Oc3ccccc3)cc2)C1 (stereo not shown),-79.3%

row,SMILES,"hERG current change (%, negative = inhibition) at 10uM"
1,Cc1ccc(C(=O)NCCNS(C)(=O)=O)cc1,10%
2,Cc1ccc(-n2nc3c(=O)n(C(C)C(=O)NCc4ccccc4Cl)nc(C)c3c2C)cc1 (stereo not shown),-35.5%
3,O=C(Cc1cccs1)NCc1cn2ccccc2n1,2.26%
4,Cc1ccc(C)c(NS(=O)(=O)c2ccc3oc(=O)ccc3c2)c1,-2.97%
5,Cc1cc(=O)oc2cc(OCC(=O)N3CCN(c4ccc(F)cc4)CC3)c(Cl)cc12,5.01%
6,O=C(COC(=O)c1ccccn1)Nc1cc(Cl)ccc1Cl,9.34%
7,CCn1cnc2c1c(=O)n(Cc1cccc([N+](=O)[O-])c1)c(=O)n2Cc1ccccc1,3.59%
8,Clc1ccccc1COc1ccc(/C=N/n2cnnc2)cc1,-0.271%
9,O=C(Nc1nc2ccccc2n1CCN1CCCCC1)c1ccco1,-54.8%
10,Cc1ccc(C(=O)CCC(=O)OCC(=O)N(C)c2c(N)n(Cc3ccccc3)c(=O)[nH]c2=O)cc1,5.56%
11,COc1ccc(C2(C(=O)NCCCN(C)C)CCOCC2)cc1,7.45%
12,CCCC(=O)Nc1nnc(Sc2ccc(N(C)C)cc2)s1,3.19%
13,Cc1ccc2c(c1)nnn2C1CCN(C(=O)C2CCCCC2)CC1,-31.3%
14,Cc1cc(N/N=C/c2ccc(Cl)cc2)nc(NCc2ccccc2)n1,3.74%
15,Cn1cccc1-c1cc(C(=O)O)[nH]n1,17.9%
16,Cn1cc(Cl)c(C(=O)OCC(=O)c2ccccc2)n1,15.7%
17,CCCn1nc(C(=O)Nc2nnc(C3CC3)s2)c2ccccc2c1=O,-31.6%
18,CC1CCC2(CC1)NC(=O)N(CC(=O)NCc1ccc3c(c1)OCO3)C2=O (stereo not shown),11.2%
19,c1coc(CNc2nc3ccccc3s2)c1,11.1%
